The densities may have been worked out from excess volumes.
Assay: xn = mol fraction of the nth substance listed
Conditions: 101 kPa

O=S(=O)([N-]S(=O)(=O)C(F)(F)F)C(F)(F)F.[Li+] + CC[n+]1ccn(C)c1.O=S(=O)([N-]S(=O)(=O)C(F)(F)F)C(F)(F)F
mass density [kg/m3]
Conditions | 298.15 K | 313.15 K | 328.15 K | 343.15 K | 358.15 K
x2 = 0.6 | 1643 | 1626 | 1615 | 1602 | 1587
x2 = 0.7 | 1607 | 1590 | 1580 | 1567 | 1552
x2 = 0.8 | – | 1558 | 1548 | 1535 | –
x2 = 0.9 | 1542 | 1526 | 1516 | 1504 | 1490
x2 = 0.95 | 1530 | 1514 | 1504 | 1492 | 1478

CC[n+]1ccn(C)c1.O=S(=O)([N-]S(=O)(=O)C(F)(F)F)C(F)(F)F + O=S(=O)([N-]S(=O)(=O)C(F)(F)F)C(F)(F)F.[Li+]
x1 = 1
Conditions | mass density [kg/m3]
298.15 K | 1516
328.15 K | 1488
358.15 K | 1460
